In the supplement of paper PMC9151546:
Most values come without repeats; read them as rough.

Assays:
CHO-K1 [1] = experiment: micronucleus frequency (% of nucleated events); higher = more micronuclei (genotoxic)
CHO-K1 [2] = experiment: hypodiploid nuclei frequency (% of nucleated events); higher = more hypodiploid events (aneugenic)
Method: (§1)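 Flow-cytometric in vitro micronucleus assay (Litron MicroFlow) in CHO-K1 cells in 96-well plates, 19 concentrations (4.5-200 µM, n=1 per concentration). Without S9, cells were exposed for 24 h and sampled at 48 h. With Aroclor 1254-induced rat liver S9, cells were exposed for 3-4 h and sampled at 27-28 h. Read-outs are %MN and %hypodiploid nuclei relative to nucleated events, and relative survival as the nuclei-to-bead ratio versus the 1% DMSO vehicle control (x100).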

CHO-K1 [3] = experiment: relative survival (nuclei to bead ratio vs DMSO control) (% of vehicle control); higher = more surviving cells
Method: as §1
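Wherever hypodiploid nuclei frequency (% of nucleated events) is given: hypodiploid nuclei gated on a flow cytometer with 488 nm excitation after SYTOX Green staining, cultures at 37 °C, positive controls vinblastine without S9 and cyclophosphamide with S9.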
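Wherever micronucleus frequency (% of nucleated events) is given: cells lysed with nuclei stained by SYTOX Green, then micronucleus-gated events counted against nucleated events by flow cytometry with 488 nm excitation.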
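Wherever relative survival (nuclei to bead ratio vs DMSO control) is given: Lysed-cell nuclei stained with SYTOX Green and counted against counting beads by flow cytometry at 488 nm excitation, with vinblastine (no S9) and cyclophosphamide (plus S9) as positive controls.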

ClC1=C(Cl)C2(Cl)C3C(Cl)C=CC3C1(Cl)C2(Cl)Cl (stereo unspecified) [Heptachlor]
Details	hypodiploid nuclei frequency, CHO-K1 [2] [%]	micronucleus frequency, CHO-K1 [1] [%]	relative survival, CHO-K1 [3]
concentration: 4.5 (µM), S9 metabolic activation: with S9, exposure time: 3-4 hours	0.16	1.32	108
concentration: 4.5 (µM), S9 metabolic activation: without S9, exposure time: 24 hours	0.78	3.68	139
concentration: 5.63 (µM), S9 metabolic activation: with S9, exposure time: 3-4 hours	0.36	1.04	111
concentration: 5.63 (µM), S9 metabolic activation: without S9, exposure time: 24 hours	0.94	2.48	129
concentration: 7.04 (µM), S9 metabolic activation: with S9, exposure time: 3-4 hours	0.26	1.48	129
concentration: 7.04 (µM), S9 metabolic activation: without S9, exposure time: 24 hours	0.9	2.02	106
concentration: 8.8 (µM), S9 metabolic activation: with S9, exposure time: 3-4 hours	0.32	1.62	105
concentration: 8.8 (µM), S9 metabolic activation: without S9, exposure time: 24 hours	1.34	2.22	132
concentration: 11 (µM), S9 metabolic activation: with S9, exposure time: 3-4 hours	0.26	2.24	109
concentration: 11 (µM), S9 metabolic activation: without S9, exposure time: 24 hours	0.9	4.64	116
concentration: 13.7 (µM), S9 metabolic activation: with S9, exposure time: 3-4 hours	0.26	2.18	114
concentration: 13.7 (µM), S9 metabolic activation: without S9, exposure time: 24 hours	1.18	2.86	110
concentration: 17.2 (µM), S9 metabolic activation: with S9, exposure time: 3-4 hours	0.32	2.74	118
concentration: 17.2 (µM), S9 metabolic activation: without S9, exposure time: 24 hours	1.14	3.48	109
concentration: 21.5 (µM), S9 metabolic activation: with S9, exposure time: 3-4 hours	0.28	3.64	88.5
concentration: 21.5 (µM), S9 metabolic activation: without S9, exposure time: 24 hours	1.04	3.46	125
concentration: 26.8 (µM), S9 metabolic activation: with S9, exposure time: 3-4 hours	0.98	4.72	50.9
concentration: 26.8 (µM), S9 metabolic activation: without S9, exposure time: 24 hours	1.24	1.68	118
concentration: 33.6 (µM), S9 metabolic activation: with S9, exposure time: 3-4 hours	1.41	14.2	54.9
concentration: 33.6 (µM), S9 metabolic activation: without S9, exposure time: 24 hours	1.38	2.58	118
concentration: 41.9 (µM), S9 metabolic activation: with S9, exposure time: 3-4 hours	1.26	10.7	40.1
concentration: 41.9 (µM), S9 metabolic activation: without S9, exposure time: 24 hours	1.6	3.02	113
concentration: 52.4 (µM), S9 metabolic activation: with S9, exposure time: 3-4 hours	1.25	21.1	41.7
concentration: 52.4 (µM), S9 metabolic activation: without S9, exposure time: 24 hours	1.54	2.5	102
concentration: 65.5 (µM), S9 metabolic activation: with S9, exposure time: 3-4 hours	–	–	28.3
concentration: 65.5 (µM), S9 metabolic activation: without S9, exposure time: 24 hours	2.22	3.3	92.7
concentration: 81.9 (µM), S9 metabolic activation: with S9, exposure time: 3-4 hours	–	–	19.3
concentration: 81.9 (µM), S9 metabolic activation: without S9, exposure time: 24 hours	2.58	5.14	80.5
concentration: 102 (µM), S9 metabolic activation: without S9, exposure time: 24 hours	3.2	6.76	65.2
concentration: 128 (µM), S9 metabolic activation: without S9, exposure time: 24 hours	3.96	9.98	55
concentration: 160 (µM), S9 metabolic activation: without S9, exposure time: 24 hours	–	–	5.02
concentration: 200 (µM), S9 metabolic activation: without S9, exposure time: 24 hours	–	–	0.21

O=P(OCCCl)(OCCCl)OCCCl [Tris(2-chloroethyl) phosphate]
Details	hypodiploid nuclei frequency, CHO-K1 [2] [%]	micronucleus frequency, CHO-K1 [1] [%]	relative survival, CHO-K1 [3]
concentration: 4.5 (µM), S9 metabolic activation: with S9, exposure time: 3-4 hours	0.3	1.98	141
concentration: 4.5 (µM), S9 metabolic activation: without S9, exposure time: 24 hours	0.48	1.8	80.3
concentration: 5.63 (µM), S9 metabolic activation: with S9, exposure time: 3-4 hours	0.2	1.16	128
concentration: 5.63 (µM), S9 metabolic activation: without S9, exposure time: 24 hours	0.6	2.32	82.6
concentration: 7.04 (µM), S9 metabolic activation: with S9, exposure time: 3-4 hours	0.26	1.3	133
concentration: 7.04 (µM), S9 metabolic activation: without S9, exposure time: 24 hours	0.64	1.66	96.3
concentration: 8.8 (µM), S9 metabolic activation: with S9, exposure time: 3-4 hours	0.18	1.28	121
concentration: 8.8 (µM), S9 metabolic activation: without S9, exposure time: 24 hours	0.66	1.56	80
concentration: 11 (µM), S9 metabolic activation: with S9, exposure time: 3-4 hours	0.14	1.46	124
concentration: 11 (µM), S9 metabolic activation: without S9, exposure time: 24 hours	0.62	1.6	111
concentration: 13.7 (µM), S9 metabolic activation: with S9, exposure time: 3-4 hours	0.18	1.3	141
concentration: 13.7 (µM), S9 metabolic activation: without S9, exposure time: 24 hours	0.46	1.48	86.6
concentration: 17.2 (µM), S9 metabolic activation: with S9, exposure time: 3-4 hours	0.28	0.92	120
concentration: 17.2 (µM), S9 metabolic activation: without S9, exposure time: 24 hours	0.56	1.2	85.8
concentration: 21.5 (µM), S9 metabolic activation: with S9, exposure time: 3-4 hours	0.38	1.54	139
concentration: 21.5 (µM), S9 metabolic activation: without S9, exposure time: 24 hours	0.56	1.6	63.5
concentration: 26.8 (µM), S9 metabolic activation: with S9, exposure time: 3-4 hours	0.34	1.46	132
concentration: 26.8 (µM), S9 metabolic activation: without S9, exposure time: 24 hours	0.52	2.76	71.6
concentration: 33.6 (µM), S9 metabolic activation: with S9, exposure time: 3-4 hours	0.2	1.42	110
concentration: 33.6 (µM), S9 metabolic activation: without S9, exposure time: 24 hours	0.6	1.88	45.2
concentration: 41.9 (µM), S9 metabolic activation: with S9, exposure time: 3-4 hours	0.2	0.98	116
concentration: 41.9 (µM), S9 metabolic activation: without S9, exposure time: 24 hours	0.96	2.2	60.1
concentration: 52.4 (µM), S9 metabolic activation: with S9, exposure time: 3-4 hours	0.16	0.82	90.9
concentration: 52.4 (µM), S9 metabolic activation: without S9, exposure time: 24 hours	0.4	1.36	56.5
concentration: 65.5 (µM), S9 metabolic activation: with S9, exposure time: 3-4 hours	0.18	1.2	81.3
concentration: 65.5 (µM), S9 metabolic activation: without S9, exposure time: 24 hours	0.52	1.88	46.9
concentration: 81.9 (µM), S9 metabolic activation: with S9, exposure time: 3-4 hours	0.24	1.26	101
concentration: 81.9 (µM), S9 metabolic activation: without S9, exposure time: 24 hours	0.88	1.54	54.5
concentration: 102 (µM), S9 metabolic activation: with S9, exposure time: 3-4 hours	0.32	0.76	88.2
concentration: 102 (µM), S9 metabolic activation: without S9, exposure time: 24 hours	0.68	1.72	71.1
concentration: 128 (µM), S9 metabolic activation: with S9, exposure time: 3-4 hours	0.18	0.92	75.3
concentration: 128 (µM), S9 metabolic activation: without S9, exposure time: 24 hours	0.82	2.26	50
concentration: 160 (µM), S9 metabolic activation: with S9, exposure time: 3-4 hours	0.12	1.24	80.4
concentration: 160 (µM), S9 metabolic activation: without S9, exposure time: 24 hours	0.9	2.06	40.8
concentration: 200 (µM), S9 metabolic activation: with S9, exposure time: 3-4 hours	0.22	0.7	77.4
concentration: 200 (µM), S9 metabolic activation: without S9, exposure time: 24 hours	1.22	1.78	42.6
